Assay results reported in PMC4336329 (PLoS ONE, 2015).
In all, about 310,000 compounds went through this assay and about 14,000 (4.5%) showed an effect of 50% or more. The effect is printed as a negative number. Some of the results follow.

Target: human ether-à-go-go-related gene (hERG) potassium channel (human, UniProt Q12809)
Assay: primary screen, population patch clamp on CHO cells stably expressing hERG
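Further: peak tail current of the secondary pulse compared with the same well before compound.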

Sequence of human ether-à-go-go-related gene (hERG) potassium channel (Q12809 whole entry, looked up): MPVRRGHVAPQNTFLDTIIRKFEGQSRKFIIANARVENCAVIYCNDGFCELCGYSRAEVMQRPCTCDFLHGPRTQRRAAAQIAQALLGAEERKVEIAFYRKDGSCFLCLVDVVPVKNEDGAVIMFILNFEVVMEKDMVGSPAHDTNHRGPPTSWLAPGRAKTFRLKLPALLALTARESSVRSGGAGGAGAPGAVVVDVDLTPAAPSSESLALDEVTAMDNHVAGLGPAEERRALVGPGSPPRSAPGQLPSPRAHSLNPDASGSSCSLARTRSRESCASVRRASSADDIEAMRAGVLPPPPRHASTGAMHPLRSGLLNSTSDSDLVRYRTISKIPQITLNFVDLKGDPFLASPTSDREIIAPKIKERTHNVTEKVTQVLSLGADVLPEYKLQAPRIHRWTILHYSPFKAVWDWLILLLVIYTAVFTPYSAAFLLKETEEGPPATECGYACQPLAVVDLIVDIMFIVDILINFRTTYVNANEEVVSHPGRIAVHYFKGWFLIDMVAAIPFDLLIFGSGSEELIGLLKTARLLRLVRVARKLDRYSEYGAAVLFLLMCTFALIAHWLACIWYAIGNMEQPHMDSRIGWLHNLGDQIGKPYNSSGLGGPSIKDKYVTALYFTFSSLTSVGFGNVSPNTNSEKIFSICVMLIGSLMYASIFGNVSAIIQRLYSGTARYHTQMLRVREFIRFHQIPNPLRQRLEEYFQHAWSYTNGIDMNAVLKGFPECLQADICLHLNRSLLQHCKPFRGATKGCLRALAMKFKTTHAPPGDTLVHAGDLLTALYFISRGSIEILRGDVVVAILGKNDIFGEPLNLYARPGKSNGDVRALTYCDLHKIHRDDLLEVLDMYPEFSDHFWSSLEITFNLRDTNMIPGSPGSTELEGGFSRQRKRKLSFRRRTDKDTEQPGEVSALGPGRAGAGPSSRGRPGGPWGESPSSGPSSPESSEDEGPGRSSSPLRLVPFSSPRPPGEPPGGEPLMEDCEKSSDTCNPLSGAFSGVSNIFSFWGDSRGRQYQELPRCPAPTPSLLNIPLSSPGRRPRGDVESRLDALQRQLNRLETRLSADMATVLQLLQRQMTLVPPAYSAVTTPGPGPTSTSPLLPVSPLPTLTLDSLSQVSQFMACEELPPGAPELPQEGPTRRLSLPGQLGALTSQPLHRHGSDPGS

Compound | hERG current change (%, negative = inhibition) at 10uM [%]
CCN(C(=O)CCNC(=O)Cn1cnc2ccccc2c1=O)c1ccccc1F | 20.1
COc1cccc(CNC(=O)CCC2CCCN(C(=O)CCc3c(C)noc3C)C2)c1 (stereo not shown) | -2.56
COc1ccc(N2CCN(C(c3ccc4ncccc4c3)c3nnnn3C(C)(C)C)CC2)cc1 (stereo not shown) | -52.1
CC(=O)N/C(=N/c1nc(C)cc(C)n1)Nc1ccc(F)cc1F | 17
CCOC(=O)C1CCCN(C(=O)c2ccc(CNc3c(N4CCC(C)CC4)c(=O)c3=O)cc2)C1 (stereo not shown) | 5.83
C=C1CCN(c2ccc(C(=O)NCc3ccc(C)cc3)cc2[N+](=O)[O-])CC1 | 18.1
CCOc1ccc(Nc2ccnc3cc(Cl)ccc23)cc1 | -7.97
O=C1NCC(O)=C1C=Nc1ccccc1O | 4.22
CCCCNC1=NCCS1 | 3.28
CC(Oc1ccc2c(-c3ccccc3)cc(=O)oc2c1)C(=O)NCC1CCC(C(=O)O)CC1 (stereo not shown) | 7.57
CCN(c1ccccc1)S(=O)(=O)c1ccc(Cl)c(NC(=O)CN2CCCCCC2)c1.O=C(O)C(=O)O | 10.1
COc1ccc(/C=C2\SC(N3CCc4ccccc4C3)=NC2=O)cc1 | -9.33
CCSCCNC(=O)c1cncc(Br)c1 | 6.27
CC1=C(C(=O)N2CCC3(CC2)OCCO3)C2(CCC(C)CC2)OC1=O (stereo not shown) | -6.74
COC(=O)NC1c2ccccc2Oc2ccc(C)cc21 (stereo not shown) | 10.9
CC1=C(C(=O)Nc2ccccc2)C2(CCCCC2)C(C#N)=C(SCC(N)=O)N1 | 10.7
O=C1CCCC2=C1C(c1ccc(O)c(O)c1)Nc1ccc3ccccc3c12 (stereo not shown) | 3.82
COc1cc(C(=S)N2CCCC2)ccc1OCC(N)=O | 17.8
CN1CC(=O)N/C1=N\C(=O)Nc1ccc(O)cc1 | 19.7
CC(=O)c1cccc(NC(=O)CN2C(=O)C(=O)N(Cc3ccco3)C2=O)c1 | 4.82
COc1ccc(C(=O)Nc2ccc(F)cc2F)cc1OC | 12
O=C(COc1cccnc1[N+](=O)[O-])NC1CCS(=O)(=O)C1 (stereo not shown) | 4.72
COc1cc(C(=O)N2CCN(c3ccccn3)CC2)cc(OC)c1OC | 9.53
CC(=O)Nc1ccc(NC(=O)CSc2nnnn2-c2ccc3c(c2)OCCO3)cc1 | 6.03
CC(C)=CCN1CCN(Cc2cnc(N3CCOCC3)s2)CC1CCO (stereo not shown) | 10.7
